Measurements published in paper PMC10107326 (Angewandte Chemie (International Ed. in English), 2022).
No end group written: not given here.

Experiments:
Settings in all cases: pure darobactins
[1] = tested on: Citrobacter freundii DSM-30039
[2] = tested on: E. coli JW0451-2 ΔacrB
[3] = tested on: Morganella morganii DSM-30164
[4] = tested on: A. baumannii NCTC 13301 (MDR)
[5] = tested on: P. aeruginosa PA14 ΔmexAB
[6] = tested on: E. coli K12 ΔtolC
[7] = tested on: Proteus vulgaris DSM-2140
[8] = tested on: P. aeruginosa NCTC 13437 (MDR)
[9] = tested on: E. coli BW25113
[10] = tested on: P. aeruginosa PA14 (DSM-19882)
[11] = tested on: K. pneumonia DSM-30104
[12] = tested on: S. marcescens DSM-30121
[13] = tested on: P. aeruginosa DSM-1117
[14] = tested on: A. baumannii DSM-30007
[15] = tested on: P. mirabilis DSM-4479
[16] = tested on: A. baumannii DSM-30008
[17] = tested on: P. aeruginosa PAO1 (DSM-22644)
[18] = tested on: E. coli ATCC-25922

## D32: engineered darobactin, core peptide WNWCKRW, cysteine disulfide-bonded to L-cysteine and lactic acid (not fully specified; also: Cys4 disulfide-bonded to L-cysteine, lactic acid attached, position not given here)
[1]
  MIC: 2 to 4 µg/mL
[2]
  MIC: 1 µg/mL
[3]
  MIC: > 64 µg/mL
[4]
  MIC: 2 to 4 µg/mL
[5]
  MIC: 4 µg/mL
[6]
  MIC: 0.5 to 1 µg/mL
[7]
  MIC: > 64 µg/mL
[8]
  MIC: 16 µg/mL
[9]
  MIC: 1 µg/mL
[10]
  MIC: 8 µg/mL
[11]
  MIC: 8 µg/mL
[12]
  MIC: > 64 µg/mL
[13]
  MIC: 16 µg/mL
[14]
  MIC: 1 to 2 µg/mL
[15]
  MIC: > 64 µg/mL
[16]
  MIC: 1 µg/mL
[17]
  MIC: 2 µg/mL
[18]
  MIC: 2 µg/mL
